The campaign covered roughly 94,000 compounds. About 4,000 (4.3%) were called active. This list was built around the results that the source calls inconclusive (neither active nor inactive); the mix of calls is not that of the screen. The call rests on the fitted dose curve; in most records, active means well fitted inhibition curve with a large enough effect; inconclusive means small, poorly fitted or top-dose-only effect; inactive means no such curve, though single readings can be large or run the other way. A potency beside an inconclusive call is a rough fit, not a confirmed value.
assay: Cytotoxic Profiling in NIH 3T3 Cell Line of Diverse Libraries Using Quantitative High-Throughput Screening; conditions: NIH 3T3 viability, CellTiter-Glo ATP luminescence, 48-72 h; activity change, negative = cytotoxicity: at 96.7 µM (top of the series) unless noted; series mostly up to 96.7 µM; further: nearly all actives have a fitted effect of over 55% in size
Description: Cell-based phenotypic screening is a commonly used approach to discover biological pathways, novel drug targets, chemical probes and high-quality hit-to-lead molecules. Many hits identified from high-throughput screening campaign are ruled out through a series of follow-up potency, selectivity/specificity, and cytotoxicity assays. Prioritization of molecules with little or no cytotoxicity for a more in-depth downstream evaluation influence the future direction of projects, so cytotoxicity profiling of the screening libraries at early stage is essential for increasing the likelihood of candidate success. In this study, we analyzed results from a cell-based cytotoxicity screening campaign, comprising nearly 10,000 compounds in NCATS annotated libraries, and over 100,000 compounds in a diversity library, evaluated in four normal cell lines (HEK 293, NIH 3T3, CRL-7250 and HaCat) and a cancer cell line (KB 3-1, a HeLa subline) with overall screening outcomes, hit rates, pan-activity and selectivity. For the annotated library, we also examined the primary targets and mechanistic pathways regularly associated with cell death. To our knowledge, this is the first study to use high-throughput screening to profile large libraries for cytotoxicity assessment in both normal and cancer cell lines. In summary, the results generated here constitutes a valuable resource for the scientific community and provides insight on identifying cytotoxic compounds with particular mechanisms of action, and prioritizing compounds with suitable cytotoxicity profile for further evaluation.
NIH 3T3 cells were seeded into white 1536-well plates using a Multidrop Combi peristaltic dispenser (ThermoFisher, Waltham, MA) at a density of 400 cells/well in 5 uL of medium respectively. A pintool (Kalypsys) was used to transfer 23 nL of compound solution to the 1536-well assay plates. After 48 or 72 hr incubation at 37 degree Celsius, 5% CO2 and 95% humidity, 2.5 uL of CellTiter-Glo (Promega) was dispensed into each well using a dispenser (Aspect Automation, St. Paul, MN) with solenoid valves (Lee Valves, Westbrook CT). Plates were left at room temperature for 10 min before imaging the ATP-coupled luminescence using a ViewLux microplate imager (PerkinElmer, Waltham, MA).
On the % scale 0 is the no-effect control and ±100 the full control effect; potency means the concentration at half of the fitted maximal effect; tags describe the fitted curve by direction and shape.

SMILES | Potency | activity change, negative = cytotoxicity | outcome
CCc1noc(-c2cccn3c(CNC(=O)c4ccccc4Cl)nnc23)n1 | inconclusive: 70.8 µM [inhibitor, partial curve, poor fit] |  | 
CNC(=O)[C@H]1C[C@]2(CCCCN(C)C2=O)N(C(=O)C2CC2)[C@H]1c1ccco1 | inconclusive: 50.1 µM [inhibitor, partial curve, poor fit] |  | 
COC(=O)[C@@H]1Cc2nc[nH]c2CN1C(C)C | active: 70.8 µM |  | 
COc1ccc(-c2cnc3[nH]cc(CC(N)=O)c3c2)cc1OC | active: 10 µM |  | 
OC(CCc1ccccc1)C1CCN(Cc2nc(-c3ccccn3)no2)CC1 (stereo not given) |  | inactive: -29% | 
COCCCNC(=O)C1CCN(C(=O)c2nnn3c2COC(c2ccc(C)cc2)C3)CC1 (stereo not given) |  |  | inactive
CNC(=O)c1cccc(-c2cnc3[nH]cc(CC(=O)Nc4ccccc4Cl)c3c2)c1 | inconclusive: 39.8 µM [inhibitor, partial curve, poor fit] |  | 
COc1ccc(-c2cc(N3CCC(NC(=O)Cc4ccccc4Cl)CC3)n[nH]2)cc1 | inconclusive: 44.7 µM [inhibitor, partial curve, poor fit] |  | 
Cc1ccc(CNC(=O)N2CCCC(c3noc(COc4ccccc4F)n3)C2)cc1 (stereo not given) | inconclusive: 50.1 µM [inhibitor, partial curve, poor fit] |  | 
Cc1cnc(C2CCC2)n1C1CCN(C(=O)CCC2CCCC2)CC1 | inconclusive: 39.8 µM [inhibitor, partial curve] |  | 
Cc1nnc2ccc(N3CCC(C)CC3)nn12 | inconclusive: 15.8 µM [inhibitor, full curve, poor fit] |  | 
CCOC(=O)[C@@H]1CN(C(=O)c2ccc(C(F)(F)F)cc2)[C@H]2c3cccc(F)c3O[C@@H]12 | inconclusive: 44.7 µM [inhibitor, partial curve, poor fit] |  | 
O=C(NC1CC1)c1ccccc1OCC1CCCN(Cc2cn[nH]c2-c2cccs2)C1 (stereo not given) | inconclusive: 70.8 µM [inhibitor, single point] |  | 
COC(=O)N1CCN(C(=O)c2nc3cccnc3n(CC(C)C)c2=O)CC1 |  | inactive: -15.8% | 
CNC(=O)c1cc(C2CC2)nc2onc(C3CCN([S+](=O)([O-])c4ccccc4)CC3)c12 | inconclusive: 39.8 µM [inhibitor, partial curve] |  | 
O=[S+]([O-])(c1ccccc1)N1CCCC2(CC(c3cccc(C(F)(F)F)c3)=NO2)C1 (stereo not given) |  | inactive: -21.3% | 
Cc1ccc(NC(=O)Nc2ccc(C)n(CC(=O)Nc3ccc(C)c(C)c3)c2=O)cc1 |  |  | inactive
CC1(NC(=O)C2CC2)CN(Cc2nc(-c3cccc(F)c3)cs2)C1 |  | inactive: -19.8% [at 138 µM] | 
O=C(NCCCc1ccccc1)C1CCCN1C(=O)c1cccc(-c2cccnc2)c1 (stereo not given) | inconclusive: 44.7 µM [inhibitor, partial curve, poor fit] |  | 
NCc1ccccc1-c1cnc2ccccc2c1 | active: 100 µM |  | 

SMILES | Potency | activity change, negative = cytotoxicity | outcome
COc1ccc(C)cc1NC(=O)c1ccc2c(c1)C(O)CCCCCN2C (stereo not given) | inconclusive: 44.7 µM [inhibitor, partial curve, poor fit] |  | 
COc1cccc(N2C(=O)NC(=NC3CCCC3)C23CCN(Cc2cccn2C)C3)c1 (stereo not given) |  |  | inactive
COCCN1Cc2nc(-c3cccc(OC(F)(F)F)c3)ccc2OCC1=O | inconclusive: 100 µM [inhibitor, single point] |  | 
CCC(C(=O)Nc1ccc2c(c1)CN(Cc1ccc(OC)cc1OC)C(=O)C(C)O2)c1ccccc1 (stereo not given) | inconclusive: 31.6 µM [inhibitor, full curve] |  | 
Cc1noc(-c2ccc3c(c2)OCO3)c1C(=O)NC(C)CCc1ccccc1 (stereo not given) | inconclusive: 44.7 µM [inhibitor, partial curve] |  | 
Cc1ccc(NC(=O)Cn2ccn3nc(-c4ccc(F)cc4)c(CO)c3c2=O)c(C)c1 | inconclusive: 39.8 µM [inhibitor, partial curve, poor fit] |  | 
CC(C)(C)n1nnnc1C1CC2(CCOCC2)C(=O)N1CCc1nc2ccccc2[nH]1 (stereo not given) |  | inactive: -11.6% | 
CCC(=O)N1CCCCCCNC(=O)[C@@H]2C[C@@H](C(=O)N3CCN(c4ccccn4)CC3)C[C@@H]21 | inconclusive: 70.8 µM [inhibitor, single point] |  | 
CCOc1ccccc1NC(=O)Cn1c(-c2ccccc2)nc(C)cc1=O |  | inactive: -26.6% | 
Cc1noc2c(NCCCn3ccnc3)cc(-c3ccc(Cl)cc3)nc12 | inconclusive: 50.1 µM [inhibitor, partial curve, poor fit] |  | 
O=C1[C@H]2CN(Cc3ccc(Cl)cc3)C[C@H]2C(=O)N1CCN1CCc2ccccc2C1 | inconclusive: 50.1 µM [inhibitor, partial curve, poor fit] |  | 
O=c1cc(-c2cccnc2)oc2c(-c3cn[nH]c3)nccc12 | active: 8.91 µM |  | 
COc1ccc(C(=O)Nc2ccc3c(c2)CN(C(C)c2ccc(F)cc2)C(=O)CO3)cc1OC (stereo not given) | inconclusive: 15.8 µM [inhibitor, full curve] |  | 
Cc1cc(C(=O)N2CCC(c3noc(-c4cnccn4)n3)C2)nn1C (stereo not given) |  |  | inactive
CC1(COc2cccnc2)COc2ccc(C(=O)NCc3ccc4c(c3)OCO4)cc2N1 (stereo not given) | inconclusive: 50.1 µM [inhibitor, partial curve, poor fit] |  | 
C=CCCC(=O)N1C[C@@H](C(=O)OCC)[C@@H]2Oc3c(C)cccc3[C@@H]21 | inconclusive: 50.1 µM [inhibitor, partial curve, poor fit] |  | 
O=C(c1ccccc1)N1CCC2(CC1)N=C(c1cccc(Br)c1)NO2 | inconclusive: 31.6 µM [inhibitor, full curve] |  | 
COCCN(C)C(=O)C1(C)CN(Cc2ccccc2)Cc2ccc(NCC(C)C)nc21 (stereo not given) | inconclusive: 50.1 µM [inhibitor, partial curve, poor fit] |  | 
CCCN(CCC)C(=O)C1COC2(CCC(C)CC2)N1C(=O)c1ccc(F)cc1 (stereo not given) | inconclusive: 50.1 µM [inhibitor, partial curve, poor fit] |  | 
O=C(NC1CCC1)c1ccc2c(c1)C1(CCN(CC3CC3)C1)CN2Cc1ccccc1 (stereo not given) | inconclusive: 56.2 µM [inhibitor, partial curve, poor fit] |  | 
